Measurements reported in US20240277663A1, “PHARMACEUTICAL KITS AND USES THEREOF FOR TREATING COLORECTAL CANCER” (priority 2023, published 2024).
Like-named read-outs stand apart in the source and are kept apart here. Marks after values point to notes of the source that are not given here.

Columns and labels:
[1] = system: CT26 allograft tumor (MSS subtype colorectal carcinoma); assay: CT26 subcutaneous tumor model, multiple doses of ABT-301 with or without avelumab; format: in vivo, mouse; settings: Day 24 after treatments, alone or + avelumab 200 μg, means ± SEM
Description: Treatments were administered for indicated period (24 days) or until humane endpoints. Ten mice were used in each group. […] Avelumab was prepared with PBS.

[2] = system: CT26 allograft tumor (MSS subtype colorectal carcinoma)
[3] = system: MC-38 allograft tumor (MSI-H subtype colorectal carcinoma)
[4] = system: CT26 allograft tumor (MSS subtype colorectal carcinoma); assay: CT26 subcutaneous tumor model, HDAC inhibitors with or without RMP1-14; settings: Day 22 after treatments; ABT-301 100 mg/kg PO; vorinostat 100 mg/kg PO; citarinostat 50 mg/kg IP; RMP1-14 200 μg IP
[5] = Day 28 after treatments, ABT-301 100 mg/kg PO, avelumab 100 μg IP, means ± SEM

With `O=C(/C=C/c1ccc2c(c1)CCN2S(=O)(=O)c1ccccc1)NO` [ABT-301, (E)-N-hydroxy-3-(1-(phenylsulfonyl)-indolin-5-yl)-acrylamide] the Tumor size ([1]; ABT-301 25 mg/kg) was 482.19 ± 106.55 mm^3, the Tumor size ([1]; ABT-301 50 mg/kg) was 384.31 ± 62.20* mm^3 and the Tumor size ([1]; ABT-301 100 mg/kg) was 391.42 ± 73.97* mm^3. The Median survival ([2]; CT26 allograft tumor mice, over the entire study, ABT-301 100 mg/kg PO QD, avelumab 100 μg IP BIW) was 33.5 days, the “TGI (tumor growth inhibition)” value [2, 5] was 39.34 ± 26.01% and the Tumor size [2, 5] was 759.26 ± 285.30 mm^3. For the same compound, the Tumor size ([3]; Day 25 after treatments, ABT-301 100 mg/kg PO, avelumab 200 μg IP, RMP1-14 200 μg IP, means ± SEM) was 1701.49 ± 321.46 mm^3, the Median survival ([3]; MC-38 allograft tumor mice, over the entire study, ABT-301 100 mg/kg PO QD, avelumab or RMP1-14 200 μg IP BIW) was 27 days and the “TGI (tumor growth inhibition)” value [4] was 53.5%.
